These are yes or no findings as the source states them, for the method shown. Binding seen in cells or lysates may run through a third protein. Some results given as binding are weak or reduced against the parent protein; the word gives no strength. For some of these results: Tags and fused reporters may be left off the sequences shown.
Experiments:
Assay in all cases: co-IP
[1] = target: HSV-1 UL31-HA (herpes simplex virus 1 (F strain)) (UniProt P10215)
CBP-Flag = CBP-Flag (UniProt Q92793)
IRF7-Flag = target: T1, IRF7-Flag (UniProt Q92985)
T1 sequence: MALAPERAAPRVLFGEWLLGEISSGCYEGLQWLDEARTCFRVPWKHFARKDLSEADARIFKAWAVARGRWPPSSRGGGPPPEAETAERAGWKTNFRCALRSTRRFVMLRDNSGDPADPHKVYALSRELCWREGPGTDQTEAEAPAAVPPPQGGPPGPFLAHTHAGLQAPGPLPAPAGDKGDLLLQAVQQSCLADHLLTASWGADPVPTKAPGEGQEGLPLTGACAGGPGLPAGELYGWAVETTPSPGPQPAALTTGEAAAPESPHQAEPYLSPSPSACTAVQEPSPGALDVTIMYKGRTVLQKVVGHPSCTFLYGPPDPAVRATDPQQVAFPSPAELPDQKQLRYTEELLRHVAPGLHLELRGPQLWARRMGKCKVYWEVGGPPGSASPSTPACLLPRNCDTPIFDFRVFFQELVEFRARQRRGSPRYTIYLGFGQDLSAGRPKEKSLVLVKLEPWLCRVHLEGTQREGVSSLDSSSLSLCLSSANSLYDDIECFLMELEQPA

Sequences of proteins named here, by UniProt entry; tags and fusion partners are left off.
UniProt P10215: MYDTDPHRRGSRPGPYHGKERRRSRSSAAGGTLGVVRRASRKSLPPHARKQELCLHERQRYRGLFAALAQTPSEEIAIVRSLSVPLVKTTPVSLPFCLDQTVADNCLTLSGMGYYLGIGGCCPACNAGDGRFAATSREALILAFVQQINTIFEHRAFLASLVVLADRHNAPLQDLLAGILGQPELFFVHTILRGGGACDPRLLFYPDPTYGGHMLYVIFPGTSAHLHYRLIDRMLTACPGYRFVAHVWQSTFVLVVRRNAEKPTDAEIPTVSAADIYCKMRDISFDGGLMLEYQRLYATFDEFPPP
UniProt Q92793: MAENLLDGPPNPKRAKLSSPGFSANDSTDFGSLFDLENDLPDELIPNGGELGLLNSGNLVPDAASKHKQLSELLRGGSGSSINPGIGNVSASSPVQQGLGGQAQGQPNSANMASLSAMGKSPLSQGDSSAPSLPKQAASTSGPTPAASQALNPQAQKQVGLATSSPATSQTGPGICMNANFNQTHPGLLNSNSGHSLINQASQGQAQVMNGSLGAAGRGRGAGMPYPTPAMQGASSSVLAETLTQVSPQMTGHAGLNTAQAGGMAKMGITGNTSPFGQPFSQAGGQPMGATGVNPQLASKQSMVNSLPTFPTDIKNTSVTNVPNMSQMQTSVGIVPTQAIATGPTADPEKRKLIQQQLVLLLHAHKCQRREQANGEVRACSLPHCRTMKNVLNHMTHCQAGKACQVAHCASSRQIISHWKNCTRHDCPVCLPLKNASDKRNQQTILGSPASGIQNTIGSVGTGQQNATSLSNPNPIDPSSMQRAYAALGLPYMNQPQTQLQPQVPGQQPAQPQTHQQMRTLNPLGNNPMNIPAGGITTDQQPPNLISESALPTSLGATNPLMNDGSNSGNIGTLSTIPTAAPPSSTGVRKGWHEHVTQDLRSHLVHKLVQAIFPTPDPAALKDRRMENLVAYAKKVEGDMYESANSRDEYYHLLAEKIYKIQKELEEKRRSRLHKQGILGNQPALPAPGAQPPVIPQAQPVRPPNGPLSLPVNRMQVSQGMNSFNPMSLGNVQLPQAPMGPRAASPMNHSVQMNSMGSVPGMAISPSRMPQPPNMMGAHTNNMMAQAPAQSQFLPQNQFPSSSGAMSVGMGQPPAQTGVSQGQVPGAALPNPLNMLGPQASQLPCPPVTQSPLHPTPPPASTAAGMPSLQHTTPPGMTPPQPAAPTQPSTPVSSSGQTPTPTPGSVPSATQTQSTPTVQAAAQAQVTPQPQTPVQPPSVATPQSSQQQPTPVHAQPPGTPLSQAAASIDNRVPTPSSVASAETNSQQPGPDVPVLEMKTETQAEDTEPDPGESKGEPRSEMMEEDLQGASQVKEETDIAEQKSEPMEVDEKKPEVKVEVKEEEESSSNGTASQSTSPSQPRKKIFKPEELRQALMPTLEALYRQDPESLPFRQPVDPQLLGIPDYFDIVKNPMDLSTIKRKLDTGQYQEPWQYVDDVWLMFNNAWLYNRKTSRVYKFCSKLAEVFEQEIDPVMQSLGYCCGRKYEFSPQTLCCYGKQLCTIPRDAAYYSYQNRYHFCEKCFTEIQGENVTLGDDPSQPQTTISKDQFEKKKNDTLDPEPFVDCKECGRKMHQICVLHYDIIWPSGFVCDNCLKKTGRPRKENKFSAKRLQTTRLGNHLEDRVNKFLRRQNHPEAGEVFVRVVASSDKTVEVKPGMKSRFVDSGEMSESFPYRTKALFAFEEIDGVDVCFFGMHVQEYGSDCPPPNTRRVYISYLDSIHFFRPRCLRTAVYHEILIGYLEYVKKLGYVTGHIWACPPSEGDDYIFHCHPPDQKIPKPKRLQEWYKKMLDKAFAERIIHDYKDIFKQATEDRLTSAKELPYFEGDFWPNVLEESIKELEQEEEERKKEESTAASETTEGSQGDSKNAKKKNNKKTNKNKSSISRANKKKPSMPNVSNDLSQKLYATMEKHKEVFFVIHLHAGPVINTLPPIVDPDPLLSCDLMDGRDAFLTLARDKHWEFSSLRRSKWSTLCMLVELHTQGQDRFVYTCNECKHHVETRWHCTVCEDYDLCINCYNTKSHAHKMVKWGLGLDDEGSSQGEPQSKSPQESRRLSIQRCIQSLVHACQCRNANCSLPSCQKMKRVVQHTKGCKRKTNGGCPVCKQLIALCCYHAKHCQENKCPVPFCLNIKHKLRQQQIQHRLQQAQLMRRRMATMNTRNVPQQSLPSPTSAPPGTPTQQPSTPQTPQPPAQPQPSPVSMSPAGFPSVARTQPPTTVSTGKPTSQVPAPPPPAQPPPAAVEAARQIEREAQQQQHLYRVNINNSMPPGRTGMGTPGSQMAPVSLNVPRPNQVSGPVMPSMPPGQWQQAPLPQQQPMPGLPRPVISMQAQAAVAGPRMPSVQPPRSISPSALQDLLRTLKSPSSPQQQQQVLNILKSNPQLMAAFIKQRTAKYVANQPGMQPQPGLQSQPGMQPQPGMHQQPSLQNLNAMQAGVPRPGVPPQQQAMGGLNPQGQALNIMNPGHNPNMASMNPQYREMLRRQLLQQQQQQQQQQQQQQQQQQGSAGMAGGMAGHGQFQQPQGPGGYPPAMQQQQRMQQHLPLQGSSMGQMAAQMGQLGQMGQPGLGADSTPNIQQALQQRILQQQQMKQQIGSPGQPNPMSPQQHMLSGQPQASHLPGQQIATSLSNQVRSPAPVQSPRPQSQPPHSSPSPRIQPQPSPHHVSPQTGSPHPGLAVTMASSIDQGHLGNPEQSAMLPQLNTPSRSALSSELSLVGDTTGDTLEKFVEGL
UniProt Q09472: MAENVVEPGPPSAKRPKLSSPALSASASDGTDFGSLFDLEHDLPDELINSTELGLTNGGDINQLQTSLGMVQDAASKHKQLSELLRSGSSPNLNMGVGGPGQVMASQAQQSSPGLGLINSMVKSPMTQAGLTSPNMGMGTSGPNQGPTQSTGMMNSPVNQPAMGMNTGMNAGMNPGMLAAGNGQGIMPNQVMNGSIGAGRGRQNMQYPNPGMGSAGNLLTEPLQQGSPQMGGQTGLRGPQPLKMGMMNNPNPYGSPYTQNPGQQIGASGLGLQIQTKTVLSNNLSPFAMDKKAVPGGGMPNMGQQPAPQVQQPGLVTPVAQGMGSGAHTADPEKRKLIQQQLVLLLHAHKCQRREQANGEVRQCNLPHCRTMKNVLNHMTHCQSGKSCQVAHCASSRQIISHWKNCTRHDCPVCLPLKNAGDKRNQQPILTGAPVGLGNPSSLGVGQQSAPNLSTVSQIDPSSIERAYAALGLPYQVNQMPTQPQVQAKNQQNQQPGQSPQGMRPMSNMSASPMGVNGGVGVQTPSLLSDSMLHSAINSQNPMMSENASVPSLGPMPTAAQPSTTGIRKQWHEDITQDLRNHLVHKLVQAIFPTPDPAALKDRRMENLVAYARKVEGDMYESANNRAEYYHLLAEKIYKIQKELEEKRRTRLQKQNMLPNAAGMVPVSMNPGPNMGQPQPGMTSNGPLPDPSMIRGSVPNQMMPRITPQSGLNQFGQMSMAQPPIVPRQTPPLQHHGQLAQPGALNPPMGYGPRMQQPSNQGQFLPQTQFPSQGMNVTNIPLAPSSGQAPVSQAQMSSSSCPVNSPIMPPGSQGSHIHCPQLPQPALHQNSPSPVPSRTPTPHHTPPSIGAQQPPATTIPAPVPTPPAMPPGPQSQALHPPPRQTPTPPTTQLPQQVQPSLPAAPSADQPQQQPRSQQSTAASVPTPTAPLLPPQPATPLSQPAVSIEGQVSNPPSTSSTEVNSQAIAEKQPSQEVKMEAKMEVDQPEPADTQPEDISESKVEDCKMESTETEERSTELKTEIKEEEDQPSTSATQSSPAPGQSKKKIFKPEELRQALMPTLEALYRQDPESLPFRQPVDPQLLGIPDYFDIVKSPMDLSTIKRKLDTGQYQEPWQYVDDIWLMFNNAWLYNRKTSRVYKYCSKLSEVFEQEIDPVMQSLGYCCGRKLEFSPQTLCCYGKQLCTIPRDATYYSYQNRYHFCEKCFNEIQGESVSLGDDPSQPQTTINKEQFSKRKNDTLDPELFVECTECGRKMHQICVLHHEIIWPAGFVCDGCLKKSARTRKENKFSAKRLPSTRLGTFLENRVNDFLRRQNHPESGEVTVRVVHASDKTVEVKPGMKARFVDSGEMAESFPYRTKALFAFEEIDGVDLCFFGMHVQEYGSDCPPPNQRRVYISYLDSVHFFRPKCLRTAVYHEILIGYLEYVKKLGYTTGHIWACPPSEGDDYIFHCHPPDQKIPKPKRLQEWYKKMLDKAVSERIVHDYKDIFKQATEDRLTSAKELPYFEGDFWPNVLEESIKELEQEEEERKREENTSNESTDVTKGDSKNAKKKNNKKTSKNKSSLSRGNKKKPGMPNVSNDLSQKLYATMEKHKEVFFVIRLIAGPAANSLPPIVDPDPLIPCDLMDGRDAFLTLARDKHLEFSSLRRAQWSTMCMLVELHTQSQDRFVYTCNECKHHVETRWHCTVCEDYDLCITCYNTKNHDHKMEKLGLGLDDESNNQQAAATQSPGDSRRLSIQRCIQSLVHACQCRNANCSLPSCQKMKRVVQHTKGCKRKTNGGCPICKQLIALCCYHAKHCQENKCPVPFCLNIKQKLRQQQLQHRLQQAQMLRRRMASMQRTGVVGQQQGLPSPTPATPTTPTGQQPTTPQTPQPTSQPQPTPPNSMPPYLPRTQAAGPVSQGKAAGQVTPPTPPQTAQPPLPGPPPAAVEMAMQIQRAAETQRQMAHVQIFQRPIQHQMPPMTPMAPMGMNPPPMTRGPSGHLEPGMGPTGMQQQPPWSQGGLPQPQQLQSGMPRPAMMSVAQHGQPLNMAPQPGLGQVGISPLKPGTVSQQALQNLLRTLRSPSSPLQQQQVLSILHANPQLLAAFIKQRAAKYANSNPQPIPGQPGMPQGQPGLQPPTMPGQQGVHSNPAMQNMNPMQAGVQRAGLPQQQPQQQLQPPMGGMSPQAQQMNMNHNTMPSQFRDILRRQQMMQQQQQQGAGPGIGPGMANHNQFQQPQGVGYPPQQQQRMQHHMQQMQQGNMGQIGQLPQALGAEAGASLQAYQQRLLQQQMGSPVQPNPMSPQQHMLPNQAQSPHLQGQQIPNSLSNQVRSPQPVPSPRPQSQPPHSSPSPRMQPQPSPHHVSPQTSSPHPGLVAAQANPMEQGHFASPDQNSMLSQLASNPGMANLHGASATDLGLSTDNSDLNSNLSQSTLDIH
UniProt Q14653: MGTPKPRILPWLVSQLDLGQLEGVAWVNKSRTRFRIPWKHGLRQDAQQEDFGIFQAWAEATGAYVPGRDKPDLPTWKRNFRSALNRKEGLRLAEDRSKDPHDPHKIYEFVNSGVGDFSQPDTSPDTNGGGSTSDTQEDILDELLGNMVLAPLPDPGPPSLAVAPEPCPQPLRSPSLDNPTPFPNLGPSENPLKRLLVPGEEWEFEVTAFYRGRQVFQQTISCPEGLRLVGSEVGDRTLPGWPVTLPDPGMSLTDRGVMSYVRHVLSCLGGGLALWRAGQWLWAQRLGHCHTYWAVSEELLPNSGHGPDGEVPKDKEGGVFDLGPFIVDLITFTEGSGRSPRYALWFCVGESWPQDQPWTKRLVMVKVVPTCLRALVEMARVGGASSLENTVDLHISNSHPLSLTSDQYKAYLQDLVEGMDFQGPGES
UniProt Q7Z434: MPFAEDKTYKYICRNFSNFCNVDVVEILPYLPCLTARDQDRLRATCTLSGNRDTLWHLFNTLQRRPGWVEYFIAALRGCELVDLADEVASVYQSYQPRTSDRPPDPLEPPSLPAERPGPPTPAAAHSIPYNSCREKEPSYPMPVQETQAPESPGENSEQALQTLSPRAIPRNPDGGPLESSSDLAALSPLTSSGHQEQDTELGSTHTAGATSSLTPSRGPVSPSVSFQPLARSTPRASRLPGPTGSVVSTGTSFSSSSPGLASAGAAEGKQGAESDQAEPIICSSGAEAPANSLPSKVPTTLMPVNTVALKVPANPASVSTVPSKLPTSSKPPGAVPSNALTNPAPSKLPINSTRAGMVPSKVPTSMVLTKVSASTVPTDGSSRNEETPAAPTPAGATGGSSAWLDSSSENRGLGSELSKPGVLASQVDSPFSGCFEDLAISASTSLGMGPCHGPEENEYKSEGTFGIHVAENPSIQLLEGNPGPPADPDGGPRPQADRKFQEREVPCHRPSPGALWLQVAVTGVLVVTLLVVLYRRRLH

TBK1-Myc = target: T2, TBK1-Myc (UniProt Q9UHD2)
T2 sequence: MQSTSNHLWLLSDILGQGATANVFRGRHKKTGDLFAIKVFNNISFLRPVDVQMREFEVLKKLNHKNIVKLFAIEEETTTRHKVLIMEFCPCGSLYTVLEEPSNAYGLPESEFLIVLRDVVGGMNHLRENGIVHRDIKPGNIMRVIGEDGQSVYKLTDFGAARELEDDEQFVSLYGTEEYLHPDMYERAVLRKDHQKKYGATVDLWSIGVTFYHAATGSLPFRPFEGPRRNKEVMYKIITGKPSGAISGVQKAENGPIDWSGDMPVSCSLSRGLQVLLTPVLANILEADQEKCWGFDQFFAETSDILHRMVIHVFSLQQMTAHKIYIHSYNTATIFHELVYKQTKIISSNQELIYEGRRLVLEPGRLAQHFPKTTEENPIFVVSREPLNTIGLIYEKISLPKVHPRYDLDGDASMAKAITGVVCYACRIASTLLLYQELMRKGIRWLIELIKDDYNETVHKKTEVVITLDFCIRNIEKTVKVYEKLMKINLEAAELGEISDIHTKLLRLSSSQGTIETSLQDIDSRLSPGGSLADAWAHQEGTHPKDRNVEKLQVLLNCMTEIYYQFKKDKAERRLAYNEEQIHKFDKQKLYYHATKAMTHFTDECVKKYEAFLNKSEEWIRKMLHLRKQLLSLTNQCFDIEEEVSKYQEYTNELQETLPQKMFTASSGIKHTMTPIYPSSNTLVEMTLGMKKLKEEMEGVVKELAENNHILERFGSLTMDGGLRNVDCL

p300-Myc = p300-Myc (UniProt Q09472)
[2] = target: HSV-1 UL31-Flag (herpes simplex virus 1 (F strain)) (UniProt P10215)
IKKi-Myc = target: T3, IKKi-Myc (UniProt Q14164)
T3 sequence: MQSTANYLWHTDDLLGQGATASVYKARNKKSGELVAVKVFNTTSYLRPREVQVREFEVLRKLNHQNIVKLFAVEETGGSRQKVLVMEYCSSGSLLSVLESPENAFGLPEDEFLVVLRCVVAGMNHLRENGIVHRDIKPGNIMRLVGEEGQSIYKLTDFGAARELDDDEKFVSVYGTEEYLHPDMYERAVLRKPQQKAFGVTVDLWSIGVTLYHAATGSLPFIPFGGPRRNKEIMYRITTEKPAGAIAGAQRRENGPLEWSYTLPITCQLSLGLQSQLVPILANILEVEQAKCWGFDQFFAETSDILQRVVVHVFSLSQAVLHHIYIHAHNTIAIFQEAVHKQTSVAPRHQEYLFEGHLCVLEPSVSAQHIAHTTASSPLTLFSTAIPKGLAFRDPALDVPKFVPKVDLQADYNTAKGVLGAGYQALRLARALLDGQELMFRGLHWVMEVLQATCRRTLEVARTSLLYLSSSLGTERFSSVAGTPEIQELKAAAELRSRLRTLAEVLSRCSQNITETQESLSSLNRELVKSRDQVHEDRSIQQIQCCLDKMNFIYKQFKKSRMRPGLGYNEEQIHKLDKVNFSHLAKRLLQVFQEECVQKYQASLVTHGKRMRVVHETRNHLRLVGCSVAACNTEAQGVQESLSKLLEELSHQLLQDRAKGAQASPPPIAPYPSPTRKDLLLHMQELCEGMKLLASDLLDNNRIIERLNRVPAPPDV

endogenous IRF3 (from UniProt Q14653 1-427)
binding [1]: binds

HSV-1 UL31-HA (from UniProt P10215 1-306)
binding (CBP-Flag): binds
binding (IRF7-Flag): binds
binding (TBK1-Myc): binds
binding (p300-Myc): binds

MAVS-Flag (from UniProt Q7Z434 1-540)
binding [1]: no binding

IRF3-HA (from UniProt Q14653 1-427)
binding (CBP-Flag): binds
binding [2]: binds
binding (IKKi-Myc): binds
binding (TBK1-Myc): binds

IRF3-Flag (from UniProt Q14653 1-427)
binding (p300-Myc): binds

B1: endogenous TBK1 (enzyme, UniProt Q9UHD2 1-729)
chain: T2 sequence
binding [1]: binds

B2: TBK1-Flag (enzyme, UniProt Q9UHD2 1-729)
chain: T2 sequence
binding (IKKi-Myc): binds

B3: RIG-I-Flag (protein, UniProt O95786 1-925)
chain: MTTEQRRSLQAFQDYIRKTLDPTYILSYMAPWFREEEVQYIQAEKNNKGPMEAATLFLKFLLELQEEGWFRGFLDALDHAGYSGLYEAIESWDFKKIEKLEEYRLLLKRLQPEFKTRIIPTDIISDLSECLINQECEEILQICSTKGMMAGAEKLVECLLRSDKENWPKTLKLALEKERNKFSELWIVEKGIKDVETEDLEDKMETSDIQIFYQEDPECQNLSENSCPPSEVSDTNLYSPFKPRNYQLELALPAMKGKNTIICAPTGCGKTFVSLLICEHHLKKFPQGQKGKVVFFANQIPVYEQQKSVFSKYFERHGYRVTGISGATAENVPVEQIVENNDIIILTPQILVNNLKKGTIPSLSIFTLMIFDECHNTSKQHPYNMIMFNYLDQKLGGSSGPLPQVIGLTASVGVGDAKNTDEALDYICKLCASLDASVIATVKHNLEELEQVVYKPQKFFRKVESRISDKFKYIIAQLMRDTESLAKRICKDLENLSQIQNREFGTQKYEQWIVTVQKACMVFQMPDKDEESRICKALFLYTSHLRKYNDALIISEHARMKDALDYLKDFFSNVRAAGFDEIEQDLTQRFEEKLQELESVSRDPSNENPKLEDLCFILQEEYHLNPETITILFVKTRALVDALKNWIEGNPKLSFLKPGILTGRGKTNQNTGMTLPAQKCILDAFKASGDHNILIATSVADEGIDIAQCNLVILYEYVGNVIKMIQTRGRGRARGSKCFLLTSNAGVIEKEQINMYKEKMMNDSILRLQTWDEAVFREKILHIQTHEKFIRDSQEKPKPVPDKENKKLLCRKCKALACYTADVRVIEECHYTVLGDAFKECFVSRPHPKPKQFSSFEKRAKIFCARQNCSHDWGIHVKYKTFEIPVIKIESFVVEDIATGVQTLYSKWKDFHFEKIPFDPAEMSK
binding [1]: no binding

B4: IKKi-Flag (enzyme, UniProt Q14164 1-716)
chain: T3 sequence
binding [1]: binds

B5: endogenous IKKi (enzyme, UniProt Q14164 1-716)
chain: T3 sequence
binding [1]: binds

Reference: article PMC8865407
